In a collection of fitness landscapes (doi:10.1126/science.1257360):
This is one part of the list.

B1: PhoQ; a variant is named by its letters at X, in order, P23837 (parent)
chain: MKKLLRLFFPLSLRVRFLLATAAVVLVLSLAYGMVALIGYSVSFDKTTFRLLRGESNLFYTLAKWENNKLHVELPENIDKQSPTMTLIYDENGQLLWAQRDVPWLMKMIQPDWLKSNGFHEIEADVNDTSLLLSGDHSIQQQLQEVREDDDDAEMTHSVAVNVYPATSRMPKLTIVVVDTIPVELKSSYMVWSWFIYVLSANLLLVIPLLWVAAWWSLRPIEALAKEVRELEEHNRELLNPATTRELTSLVRNLNRLLKSERERYDKYRTTLTDLTHSLKTPLXXLQXXLRSLRSEKMSVSDAEPVMLEQISRISQQIGYYLHRASMRGGTLLSRELHPVAPLLDNLTSALNKVYQRKGVNISLDISPEISFVGEQNDFVEVMGNVLDNACKYCLEFVEISARQTDEHLYIVVEDDGPGIPLSKREVIFDRGQRVDTLRPGQGVGLAVAREITEQYEGKIVAGESMLGGARMEVIFGRQHSAPKDE

Variants of: B1
Test: enrichment ratio after two sorts for PhoP signalling (ratio (wild type AVST 3.29)); higher = more functional
Details: with PhoP (E. coli)

Variant | enrichment ratio
HGQL | ≤ 0.25
KVHQ | ≤ 0.25
HMHK | ≤ 0.25
YAIV | ≤ 0.25
NLYE | ≤ 0.25
MMHQ | ≤ 0.25
MFRA | ≤ 0.25
HRHG | ≤ 0.25
NLFC | ≤ 0.25
ILTS | ≤ 0.25
VCDG | ≤ 0.25
QKTI | ≤ 0.25
EDYH | ≤ 0.25
NIWW | ≤ 0.25
TDPD | ≤ 0.25
NHSY | ≤ 0.25
VDWY | ≤ 0.25
NLQN | ≤ 0.25
VAAM | 2.25
MGIS | ≤ 0.25
NLLR | ≤ 0.25
VDTQ | ≤ 0.25
PWMA | ≤ 0.25
DICD | ≤ 0.25

Variant | enrichment ratio
IKLK | ≤ 0.25
QIYD | ≤ 0.25
HTRF | ≤ 0.25
QPKL | ≤ 0.25
SIWQ | 6.53
WRCW | ≤ 0.25
NNNQ | ≤ 0.25
LMLD | 0.416
PYGQ | ≤ 0.25
WGFQ | ≤ 0.25
QLRR | ≤ 0.25
KSYF | ≤ 0.25
NSFA | ≤ 0.25
FEAG | 1.46
MKTI | ≤ 0.25
VGGF | ≤ 0.25
GKPE | ≤ 0.25
FVQP | ≤ 0.25
DTLF | ≤ 0.25
DVIA | ≤ 0.25
MPQH | ≤ 0.25
FYDE | ≤ 0.25
NCWF | ≤ 0.25
FVPY | ≤ 0.25

Variant | enrichment ratio
ITVI | ≤ 0.25
PDCA | ≤ 0.25
IDPQ | ≤ 0.25
GFHP | ≤ 0.25
MTST | ≤ 0.25
NQGR | ≤ 0.25
IRPI | ≤ 0.25
TEML | 28.6
QPRP | ≤ 0.25
YFAH | ≤ 0.25
RVQA | ≤ 0.25
DVQG | ≤ 0.25
AICP | ≤ 0.25
NFKI | ≤ 0.25
LWKN | ≤ 0.25
HCTP | ≤ 0.25
RTTI | ≤ 0.25
PMYW | ≤ 0.25
EGQA | ≤ 0.25
NYTF | ≤ 0.25
VWLP | ≤ 0.25
SILA | 16.9
FVWM | ≤ 0.25
WCHL | ≤ 0.25

Variant | enrichment ratio
FLLS | ≤ 0.25
VYIT | ≤ 0.25
SQNF | ≤ 0.25
RQTM | ≤ 0.25
HGSI | 0.812
LHGH | ≤ 0.25
AETH | 0.824
MMKV | ≤ 0.25
LSSC | ≤ 0.25
IQHY | ≤ 0.25
TYTH | ≤ 0.25
FHPE | ≤ 0.25
NDGT | ≤ 0.25
FNNF | 0.347
FAPD | ≤ 0.25
YDEH | ≤ 0.25
KLPF | ≤ 0.25
VNDC | ≤ 0.25
PTFD | ≤ 0.25
LDEH | ≤ 0.25
YQQG | ≤ 0.25
RRSS | ≤ 0.25
TQIC | 8.58
DRDQ | ≤ 0.25

Variant | enrichment ratio
AKSR | ≤ 0.25
YGHC | ≤ 0.25
TKFQ | 3.42
TFSG | 13.9
FHVI | ≤ 0.25
HTRK | ≤ 0.25
NGGE | ≤ 0.25
HEAT | ≤ 0.25
ALTC | 0.959
EQQC | ≤ 0.25
HKRC | ≤ 0.25
SGTA | 7.55
DVPQ | ≤ 0.25
LKTF | ≤ 0.25
FKYQ | ≤ 0.25
WKIA | ≤ 0.25
HKSM | ≤ 0.25
LMKW | ≤ 0.25
VYPE | ≤ 0.25
LHQW | ≤ 0.25
IIHT | ≤ 0.25
LPGI | ≤ 0.25
YFDL | ≤ 0.25
LEMN | ≤ 0.25

Variant | enrichment ratio
GTNP | ≤ 0.25
SLIG | ≤ 0.25
GFWC | ≤ 0.25
SWWQ | ≤ 0.25
ANMV | 19.1
EVPN | ≤ 0.25
HYLP | ≤ 0.25
RDSH | ≤ 0.25
VMWY | ≤ 0.25
TNGS | 7.8
KRIC | ≤ 0.25
HTTI | ≤ 0.25
NIYQ | ≤ 0.25
MSEQ | ≤ 0.25
VEGR | ≤ 0.25
EQTY | ≤ 0.25
VMEI | ≤ 0.25
KWPL | ≤ 0.25
WRKI | ≤ 0.25
MSNE | ≤ 0.25
FLQW | ≤ 0.25
ATQP | ≤ 0.25
PRKY | ≤ 0.25
HMMY | ≤ 0.25

Variant | enrichment ratio
LLRH | ≤ 0.25
TFRI | ≤ 0.25
EDEV | ≤ 0.25
NTKH | ≤ 0.25
ENPR | ≤ 0.25
KMAM | ≤ 0.25
CFCY | ≤ 0.25
KDWL | ≤ 0.25
NITK | ≤ 0.25
WWRW | ≤ 0.25
KKTD | ≤ 0.25
PFRH | ≤ 0.25
LQDL | ≤ 0.25
DLGL | ≤ 0.25
HHEH | ≤ 0.25
WYSC | ≤ 0.25
IRVT | ≤ 0.25
DDYQ | ≤ 0.25
LRGI | ≤ 0.25
MYTG | ≤ 0.25
RHMV | ≤ 0.25
WSDC | ≤ 0.25
VMCE | ≤ 0.25
HTKH | ≤ 0.25

Variant | enrichment ratio
PLEM | ≤ 0.25
RKDT | ≤ 0.25
FNRK | ≤ 0.25
WGCG | ≤ 0.25
FIER | ≤ 0.25
SWCL | ≤ 0.25
VNSF | ≤ 0.25
FCAI | ≤ 0.25
PFGM | ≤ 0.25
HYAN | ≤ 0.25
ASPC | ≤ 0.25
PLPY | ≤ 0.25
EMQH | ≤ 0.25
ECDL | ≤ 0.25
QIAI | 2.26
WPGH | ≤ 0.25
IKQA | ≤ 0.25
AKYS | ≤ 0.25
SPTT | ≤ 0.25
SFHE | ≤ 0.25
PQWE | ≤ 0.25
NGDP | ≤ 0.25
TVHD | ≤ 0.25
HETE | ≤ 0.25

Variant | enrichment ratio
MEPF | ≤ 0.25
FMHD | ≤ 0.25
IMMA | ≤ 0.25
DPHI | ≤ 0.25
PDGQ | ≤ 0.25
QPHM | ≤ 0.25
NDVV | ≤ 0.25
VKPM | ≤ 0.25
LSAE | ≤ 0.25
YRKW | ≤ 0.25
TRIC | ≤ 0.25
DEWV | ≤ 0.25
GCGA | ≤ 0.25
IMGE | ≤ 0.25
MIWI | 3.74
CNWS | ≤ 0.25
ERAS | ≤ 0.25
IIHY | ≤ 0.25
PCTG | ≤ 0.25
TGSM | 23.5
GSYD | ≤ 0.25
LYRK | ≤ 0.25
PFDG | ≤ 0.25
LPVM | ≤ 0.25

Variant | enrichment ratio
IQIT | ≤ 0.25
HYGY | ≤ 0.25
LQMA | ≤ 0.25
PFEA | ≤ 0.25
SMPT | ≤ 0.25
GTHG | ≤ 0.25
NKWL | ≤ 0.25
KVYH | ≤ 0.25
GCFS | ≤ 0.25
SHPQ | ≤ 0.25
VAPR | ≤ 0.25
DDFM | ≤ 0.25
HTHN | ≤ 0.25
DLWK | ≤ 0.25
ISMM | 5.78
QSFW | ≤ 0.25
QVYG | 0.25
AALH | 7.76
VERL | ≤ 0.25
QVNK | ≤ 0.25
MEVM | 12.9
WMNP | ≤ 0.25
ADWF | ≤ 0.25
DIWS | ≤ 0.25

Variant | enrichment ratio
QQDY | ≤ 0.25
THRT | ≤ 0.25
AVTQ | 4.9
LNPQ | ≤ 0.25
KSRA | ≤ 0.25
VDPH | ≤ 0.25
INEI | ≤ 0.25
QQVP | ≤ 0.25
MSRK | ≤ 0.25
KHVE | ≤ 0.25
FENL | ≤ 0.25
WGDR | ≤ 0.25
MSHV | 17.4
RNCG | ≤ 0.25
VIIA | ≤ 0.25
LKDI | ≤ 0.25
KSIQ | ≤ 0.25
EIDI | ≤ 0.25
LMCH | ≤ 0.25
TANC | 12.1
KASY | ≤ 0.25
KMAC | ≤ 0.25
RDLP | ≤ 0.25
KQNF | ≤ 0.25

Variant | enrichment ratio
NNHM | ≤ 0.25
RGRL | ≤ 0.25
TFSR | ≤ 0.25
DIPL | ≤ 0.25
HPIW | ≤ 0.25
LEGL | ≤ 0.25
ICGF | ≤ 0.25
LLMQ | ≤ 0.25
LSLC | 0.277
MQVS | ≤ 0.25
AAPK | ≤ 0.25
DTPP | ≤ 0.25
WKKA | ≤ 0.25
MVGL | 3.39
FGSR | ≤ 0.25
GKLL | 9
AVQW | ≤ 0.25
KTMS | ≤ 0.25
EGFK | ≤ 0.25
DAYR | ≤ 0.25
VHAL | ≤ 0.25
TPAD | ≤ 0.25
WKLW | ≤ 0.25
SMAC | 12.5

Variant | enrichment ratio
TKVS | 7.5
FNES | ≤ 0.25
LKEC | ≤ 0.25
PGES | ≤ 0.25
FSQG | ≤ 0.25
MRHY | ≤ 0.25
PFTI | ≤ 0.25
NPFG | ≤ 0.25
HQGN | ≤ 0.25
SGLS | 10.8
FGMF | ≤ 0.25
EHGH | ≤ 0.25
HRPY | ≤ 0.25
VKVR | ≤ 0.25
DLVP | ≤ 0.25
AGLA | 4.99
DNET | ≤ 0.25
IHRQ | ≤ 0.25
